Results taken from patent US9744222B2, “Peptide for vaccine” (Circassia Limited, priority 2007, dated 2017).
Not every detail of the peptide structures is certain; ends, links or a residue may be inferred. Some compounds share one wording; it may come from a single statement. Some of these results come from one statement about several compounds together. Where a SMILES comes first, the peptide text is derived from it.

System: PBMC's
Test: Cytokine release assay (IL-13, IFN-gamma)
Assay type: cell-based, human
Conditions: IL-13 or IFN-gamma response greater than 100 pg/ml
Protocol: Cytokine secretion profiles from PBMC's are analysed in response to the peptide stimulation using the peptides from Example 3.
Thus, an individual was considered to have responded to a peptide if cells from that individual yielded a response greater than 100 pg/ml for either […] or IFN-gamma.

Molecule	Ranking of peptides by percentage of responders (in words)
CC[C@H](C)[C@H](NC(=O)[C@H](C)NC(=O)CNC(=O)CNC(=O)[C@H](CC(N)=O)NC(=O)[C@H](CO)NC(=O)[C@H](CCC(N)=O)NC(=O)[C@@H](NC(=O)[C@H](Cc1ccc(O)cc1)NC(=O)[C@H](CCCCN)NC(=O)[C@@H](NC(=O)[C@H](CO)NC(=O)[C@@H](N)CCC(=O)O)C(C)C)C(C)C)C(=O)O [HDM201] (H-ESVKYVQSNGGAI-OH; N-terminus and C-terminus assumed)	top five peptides
CC(C)C[C@H](NC(=O)[C@H](CC(=O)O)NC(=O)[C@H](CC(C)C)NC(=O)[C@H](CO)NC(=O)[C@H](CCC(N)=O)NC(=O)[C@H](CC(N)=O)NC(=O)[C@@H](N)CCCNC(=N)N)C(=O)N[C@@H](C)C(=O)N[C@@H](CCC(=O)O)C(=O)N[C@@H](CCC(N)=O)C(=O)N[C@@H](CCC(=O)O)C(=O)N[C@@H](CC(C)C)C(=O)N[C@H](C(=O)N[C@@H](CC(=O)O)C(=O)N[C@@H](CO)C(=O)N[C@@H](C)C(=O)N[C@@H](CO)C(=O)N[C@@H](CCC(N)=O)C(=O)N[C@@H](Cc1c[nH]cn1)C(=O)O)C(C)C [HDM03D] (H-RNQSLDLAEQELVDSASQH-OH; N-terminus and C-terminus assumed)	next most potent peptides
CC[C@H](C)[C@H](NC(=O)[C@@H]1CCCN1C(=O)[C@@H](NC(=O)[C@@H](NC(=O)[C@@H](NC(=O)[C@H](CCCNC(=N)N)NC(=O)[C@H](CCSC)NC(=O)[C@H](CCC(N)=O)NC(=O)[C@H](CCCNC(=N)N)NC(=O)[C@H](CC(C)C)NC(=O)[C@@H](N)CC(=O)O)[C@@H](C)O)C(C)C)[C@@H](C)O)C(=O)N[C@@H](CCCNC(=N)N)C(=O)N[C@@H](CCSC)C(=O)N[C@@H](CCC(N)=O)C(=O)NCC(=O)NCC(=O)N[C@@H](CS)C(=O)NCC(=O)N[C@@H](CO)C(=O)O [HDM203A] (H-DLRQMRTVTPIRMQGGCGS-OH; N-terminus and C-terminus assumed)	top five peptides
CC[C@H](NC(=O)[C@H](CC(=O)O)NC(=O)[C@@H](NC(=O)[C@H](CC(C)C)NC(=O)[C@H](CCC(=O)O)NC(=O)[C@H](CCC(N)=O)NC(=O)[C@H](CCC(=O)O)NC(=O)[C@H](C)NC(=O)[C@H](CC(C)C)NC(=O)[C@H](CC(=O)O)NC(=O)[C@H](CC(C)C)NC(=O)[C@H](CO)NC(=O)[C@H](CCC(N)=O)NC(=O)[C@H](CC(N)=O)NC(=O)[C@@H](N)CCCNC(=N)N)C(C)C)C(=O)N[C@@H](C)C(=O)N[C@@H](CO)C(=O)N[C@@H](CCC(N)=O)C(=O)N[C@@H](Cc1c[nH]cn1)C(=O)O [HDM03E] (HELM PEPTIDE1{R.N.Q.S.L.D.L.A.E.Q.E.L.V.D.[Abu].A.S.Q.H}$$$$V2.0; N-terminus and C-terminus assumed)	next most potent peptides
CC(C)C[C@H](NC(=O)[C@@H](N)CCC(=O)O)C(=O)N[C@H](C(=O)N[C@@H](CC(=O)O)C(=O)N[C@@H](CO)C(=O)N[C@@H](C)C(=O)N[C@@H](CO)C(=O)N[C@@H](CCC(N)=O)C(=O)N[C@@H](Cc1c[nH]cn1)C(=O)NCC(=O)O)C(C)C [HDM03W] (H-ELVDSASQHG-OH; N-terminus and C-terminus assumed)	at least equivalent to HDM03D
CSCC[C@H](NC(=O)[C@H](CC(C)C)NC(=O)[C@H](Cc1ccccc1)NC(=O)[C@H](CCCNC(=N)N)NC(=O)[C@H](CC(N)=O)NC(=O)[C@H](CCCCN)NC(=O)[C@H](Cc1ccccc1)NC(=O)[C@H](CCC(=O)O)NC(=O)[C@@H](N)CC(=O)O)C(=O)N[C@@H](CO)C(=O)N[C@@H](C)C(=O)N[C@@H](CCC(=O)O)C(=O)N[C@@H](C)C(=O)N[C@@H](Cc1ccccc1)C(=O)N[C@@H](CCC(=O)O)C(=O)O [HDM202] (H-DEFKNRFLMSAEAFE-OH; N-terminus and C-terminus assumed)	top five peptides
CC[C@H](C)[C@H](NC(=O)[C@H](CCCCN)NC(=O)[C@H](CC(N)=O)NC(=O)[C@@H](NC(=O)[C@H](CC(N)=O)NC(=O)[C@@H]1CCCN1C(=O)[C@@H]1CCCN1C(=O)[C@H](Cc1ccc(O)cc1)NC(=O)[C@@H](NC(=O)[C@H](CCC(N)=O)NC(=O)[C@H](CO)NC(=O)[C@H](Cc1ccc(O)cc1)NC(=O)[C@@H](N)CC(N)=O)[C@@H](C)CC)C(C)C)C(=O)N[C@@H](CCCNC(=N)N)C(=O)N[C@@H](CCC(=O)O)C(=O)N[C@@H](C)C(=O)O [HDM101A] (H-NYSQIYPPNVNKIREA-OH; N-terminus and C-terminus assumed)	next most potent peptides

Same assay, conditions: PBMC of house dust mite allergic individuals, 5 days stimulation

Molecule	Percentage of individuals with an IL-13 or IFN-gamma response greater than 100 pg/ml [%]
RYVAREQSSRRP [HDM06A]	> 25
CC[C@H](C)[C@H](NC(=O)[C@H](CCC(N)=O)NC(=O)[C@H](CO)NC(=O)[C@H](Cc1ccc(O)cc1)NC(=O)[C@H](CC(N)=O)NC(=O)[C@H](CO)NC(=O)[C@@H](NC(=O)CNC(=O)[C@H](Cc1ccccc1)NC(=O)[C@H](CCCNC(=N)N)NC(=O)[C@H](CCC(N)=O)NC(=O)[C@H](C)NC(=O)[C@@H](N)CC(N)=O)[C@@H](C)CC)C(=O)O [HDM102A] (H-NAQRFGISNYSQI-OH; N-terminus and C-terminus assumed)	> 25

System: not listed separately
Test: Precipitation in aqueous solution of the binding assay
Assay type: physicochemical
Conditions: lowest concentration at which an insoluble white precipitate is seen in the aqueous solution of the binding assay
From the text: This is a characteristic of promiscuous HLA-DRB1* binders.

Molecule	Precipitation in assay
CSCC[C@H](NC(=O)[C@@H]1CCCN1C(=O)[C@H](CC(=O)O)NC(=O)[C@H](Cc1ccccc1)NC(=O)[C@@H](NC(=O)[C@@H](N)CCC(=O)O)[C@@H](C)O)C(=O)N[C@@H](CCCCN)C(=O)N[C@H](C(=O)N1CCC[C@H]1C(=O)N[C@@H](CC(=O)O)C(=O)N[C@@H](Cc1c[nH]cn1)C(=O)N[C@@H](CO)C(=O)N[C@@H](CC(=O)O)C(=O)O)C(C)C [HDM29] (H-ETFDPMKVPDHSD-OH; N-terminus and C-terminus assumed)	None
CC[C@H](C)[C@H](NC(=O)[C@H](CCC(=O)O)NC(=O)[C@@H](NC(=O)[C@H](CCCCN)NC(=O)[C@H](C)N)[C@@H](C)CC)C(=O)N[C@@H](CCCCN)C(=O)N[C@@H](C)C(=O)N[C@@H](CO)C(=O)N[C@@H](CC(C)C)C(=O)N[C@@H](CC(=O)O)C(=O)NCC(=O)N[C@@H](CC(C)C)C(=O)N[C@@H](CCC(=O)O)C(=O)O [HDM27] (H-AKIEIKASLDGLE-OH; N-terminus and C-terminus assumed)	10000 µM
CC(C)[C@H](NC(=O)[C@H](CCCNC(=N)N)NC(=O)[C@@H](N)CCCCN)C(=O)NCC(=O)N[C@@H](CC(=O)O)C(=O)N[C@@H](C)C(=O)N[C@@H](CC(N)=O)C(=O)N[C@H](C(=O)N[C@@H](CCCCN)C(=O)N[C@@H](CO)C(=O)N[C@@H](CCC(=O)O)C(=O)N[C@@H](CC(=O)O)C(=O)NCC(=O)O)C(C)C [HDM36] (H-KRVGDANVKSEDG-OH; N-terminus and C-terminus assumed)	None
CSCC[C@H](NC(=O)[C@H](CO)NC(=O)[C@@H](NC(=O)[C@@H](NC(=O)[C@H](CC(=O)O)NC(=O)[C@@H](N)CC(=O)O)C(C)C)C(C)C)C(=O)N[C@@H](CCC(=O)O)C(=O)N[C@@H](Cc1ccc(O)cc1)C(=O)N[C@@H](CC(=O)O)C(=O)N[C@@H](CC(C)C)C(=O)N[C@@H](C)C(=O)N[C@@H](Cc1ccc(O)cc1)C(=O)N[C@@H](CCCCN)C(=O)O [HDM39] (H-DDVVSMEYDLAYK-OH; N-terminus and C-terminus assumed)	None
CC(C)C[C@H](NC(=O)[C@H](CCC(=O)O)NC(=O)[C@H](CCCCN)NC(=O)[C@H](CCCCN)NC(=O)[C@H](Cc1ccccc1)NC(=O)[C@H](C)NC(=O)[C@@H]1CCCN1C(=O)[C@H](C)NC(=O)[C@H](CC(C)C)NC(=O)[C@@H](NC(=O)[C@@H](N)CCCCN)C(C)C)C(=O)N[C@@H](CCC(=O)O)C(=O)N[C@@H](CCCNC(=N)N)C(=O)O [HDM50] (H-KVLAPAFKKELER-OH; N-terminus and C-terminus assumed)	None
CC[C@H](C)[C@H](NC(=O)[C@H](Cc1ccc(O)cc1)NC(=O)[C@@H](N)CCC(=O)O)C(=O)N[C@@H](CCC(N)=O)C(=O)N[C@@H](Cc1c[nH]cn1)C(=O)N[C@@H](CC(N)=O)C(=O)NCC(=O)N[C@H](C(=O)N[C@H](C(=O)N[C@@H](CCC(N)=O)C(=O)N[C@@H](CCC(=O)O)C(=O)N[C@@H](CO)C(=O)N[C@@H](Cc1ccc(O)cc1)C(=O)O)C(C)C)C(C)C [HDM05] (H-EYIQHNGVVQESY-OH; N-terminus and C-terminus assumed)	None
CC(C)[C@H](NC(=O)[C@H](C)NC(=O)[C@@H](N)CCC(=O)O)C(=O)N[C@@H](Cc1ccccc1)C(=O)N[C@@H](CCC(=O)O)C(=O)N[C@@H](C)C(=O)N[C@@H](CC(N)=O)C(=O)N[C@@H](CCC(N)=O)C(=O)N[C@@H](CC(N)=O)C(=O)N[C@H](C(=O)N[C@@H](CCCCN)C(=O)N[C@H](C(=O)N[C@@H](C)C(=O)N[C@@H](CCCCN)C(=O)O)[C@@H](C)O)[C@@H](C)O [HDM22A] (H-EAVFEANQNTKTAK-OH; N-terminus and C-terminus assumed)	None
CC[C@H](C)[C@H](N)C(=O)N[C@@H](CC(=O)O)C(=O)N[C@@H](CC(C)C)C(=O)N[C@@H](CCCCN)C(=O)NCC(=O)N[C@@H](CCC(=O)O)C(=O)N[C@@H](CC(C)C)C(=O)N[C@@H](CC(=O)O)C(=O)N[C@@H](CCSC)C(=O)N[C@@H](CCCNC(=N)N)C(=O)N[C@@H](CC(N)=O)C(=O)N[C@H](C(=O)N[C@@H](CCC(N)=O)C(=O)N[C@H](C(=O)N[C@@H](CCCNC(=N)N)C(=O)O)C(C)C)[C@@H](C)CC [HDM32A] (H-IDLKGELDMRNIQVR-OH; N-terminus and C-terminus assumed)	50000 µM

Same assay, conditions: lowest concentration at which an insoluble white precipitate is seen, value in brackets

Molecule	Precipitation in assay
CC[C@H](C)[C@H](NC(=O)[C@H](CCC(=O)O)NC(=O)[C@@H](NC(=O)[C@H](CCCCN)NC(=O)[C@H](C)N)[C@@H](C)CC)C(=O)N[C@@H](CCCCN)C(=O)N[C@@H](C)C(=O)N[C@@H](CO)C(=O)N[C@@H](CC(C)C)C(=O)N[C@@H](CC(=O)O)C(=O)NCC(=O)N[C@@H](CC(C)C)C(=O)N[C@@H](CCC(=O)O)C(=O)O [HDM27] (H-AKIEIKASLDGLE-OH; N-terminus and C-terminus assumed)	(1.4 mg/ml)
CC[C@H](C)[C@H](N)C(=O)N[C@@H](CC(=O)O)C(=O)N[C@@H](CC(C)C)C(=O)N[C@@H](CCCCN)C(=O)NCC(=O)N[C@@H](CCC(=O)O)C(=O)N[C@@H](CC(C)C)C(=O)N[C@@H](CC(=O)O)C(=O)N[C@@H](CCSC)C(=O)N[C@@H](CCCNC(=N)N)C(=O)N[C@@H](CC(N)=O)C(=O)N[C@H](C(=O)N[C@@H](CCC(N)=O)C(=O)N[C@H](C(=O)N[C@@H](CCCNC(=N)N)C(=O)O)C(C)C)[C@@H](C)CC [HDM32A] (H-IDLKGELDMRNIQVR-OH; N-terminus and C-terminus assumed)	(9.0 mg/ml)
